# Screen size: about 45,000 compounds; about 200 (0.44%) were called active. About 7% were inconclusive and are not listed. Calls come from the whole dose curve; as a rule, active = well fitted activation curve with a large enough effect; inconclusive = small, poorly fitted or top-dose-only effect; inactive = no such curve, though single readings can be large or run the other way. The list shows a part of the results.
# Experiment: qHTS of TDP-43 Inhibitors: NCGC Sytravon Library Screen; note: 0% is about no effect; nearly all actives have a fitted effect of over 55% in size
# Details: yeast TDP-43 toxicity rescue, BacTiter-Glo growth, 24 h; series mostly up to 46.1 µM; growth rescue (activation): at the top concentration
# Outline: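 TDP-43-expressing yeast, pregrown in raffinose, seeded at OD600 0.02 in galactose medium with compound for 24 hr at 30 deg C. Growth read by BacTiter-Glo luminescence, so rescue of toxicity appears as activation.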
row,Structure (SMILES),growth rescue (activation)
1,CCSc1ncc(Cl)c(C(=O)Nc2c(C(=O)Nc3ccccc3)oc3ccccc23)n1,inactive: -6.68%
2,O=C(O)c1c(-c2ccccc2)oc2ccc(OCc3c(F)cccc3Cl)cc12,inactive: 4.92%
3,Cc1cc(C)cc(C(=O)Nc2ccc3[nH]c(=O)[nH]c3c2)c1,inactive: 4.77%
4,O=C(CN1CCCC1)Nc1ccc([N+](=O)[O-])cc1Cl,inactive: 16.3%
5,Cc1ccc(C(=O)N2CCN(c3ccccc3F)CC2)cc1S(=O)(=O)N1CCOCC1,inactive: -15.2%
6,CN(CC1COc2ccccc2O1)C(=O)CSc1nncs1 (stereo unspecified),inactive: 15.4%
7,COc1cc(/C=N/Nc2nc(Nc3ccccc3)nc(N3CCCCC3)n2)ccc1OCC(=O)O,inactive: 7.18%
8,O=C(NCc1cccs1)C1CCCN1C(=O)Nc1ccccc1Cl (stereo unspecified),inactive: 8.64%
9,CCOc1ccc2[nH]c(=O)c(CN(Cc3ccc(F)cc3)C(=O)c3ccco3)cc2c1,inactive: 9.96%
10,N=C1C(c2nc3ccccc3[nH]2)=C(O)CN1NC(=O)c1c[nH]c2ccccc12,inactive: 7.69%
11,COc1ccc(N(Cc2cc3ccc(C)cc3[nH]c2=O)C(=O)C2CCCO2)cc1 (stereo unspecified),inactive: -9.23%
12,NC(=O)c1ccc(NC(=O)CSc2nnc(-c3ccccn3)n2N)cc1,inactive: 4.58%
13,O=C(CSc1n[nH]c(=O)n1Cc1ccccc1)Nc1ccc(F)c(F)c1F,inactive: 12.2%
14,Cc1noc(C)c1-c1ccc(C(=O)N2CCN(C)CC2)c2occc12,inactive: -9.62%
15,CC1CCCCN1C(=O)/C=C/c1ccccc1[N+](=O)[O-] (stereo unspecified),inactive: 9.99%
16,Cn1c(=O)c(C(=O)NNC(=O)c2ccccc2Br)c(O)c2ccccc21,inactive: -22.4%
17,COc1cc(C(O)c2nc(-c3cnn(C)c3)cs2)ccc1F (stereo unspecified),inactive: 18.9%
18,O=C(COc1ccc(Cl)cc1[N+](=O)[O-])N1CCCCCC1,inactive: 10.6%
19,CCOc1ccc(NC(=O)c2ccccc2OC)cc1,inactive: 27.1%
20,CCOC(=O)c1sc(NC(=O)C2CC(=O)N(c3ccc(OC)cc3)C2)nc1C (stereo unspecified),inactive: 15.9%
21,CC(=O)NC(C)c1nc2ccccc2n1CC(=O)NC(C)CCc1ccccc1 (stereo unspecified),inactive: 0.0427%
22,COc1ccccc1OCC(=O)Nc1ccccc1C(=O)NCc1cccnc1,inactive: 2.44%

row,Structure (SMILES),growth rescue (activation)
1,Cc1ccc(S(=O)(=O)NCCSc2nncn2C)cc1,inactive: 9.95%
2,O=C(NCCSc1ccccn1)c1ccc(Cl)cc1,inactive: 3.25%
3,O=C(CSc1nc2ccccc2s1)N/N=C/c1cc([N+](=O)[O-])ccc1O,inactive: 8.87%
4,O=C(c1cc(-c2ccccc2)nc2ccccc12)N1CCCC1,inactive: 9.29%
5,O=C(OCC(=O)N1CCCCC1)c1cc(S(=O)(=O)N2CCOCC2)c(Cl)cc1Cl,inactive: 9.71%
6,O=C(NC1=NCCS1)c1ccc(Cl)c(S(=O)(=O)N2CCCC2)c1,inactive: -3.23%
7,CC(C)(C)c1cc(-c2ccccc2)no1,inactive: 10%
8,CCOC(=O)C1=C(C)NC(C)=C(C(=O)OCC)C1C(=O)OCC(=O)N1CCC(C)CC1,inactive: -21.1%
9,Cc1cccc(C)c1OCC(=O)Nn1c(=O)[nH]c2ccccc2c1=O,inactive: 3.68%
10,O=C(CSc1ncnc2ccccc12)Nc1cccc(S(=O)(=O)N2CCCC2)c1,inactive: 9.3%
11,COc1ccc([N+](=O)[O-])cc1NC(=O)c1ccccc1N(C)S(C)(=O)=O,inactive: 7.48%
12,Cc1ccc(S(=O)(=O)N(CC(O)CN2C(=O)NC(C)(C)C2=O)c2ccccc2)cc1 (stereo unspecified),inactive: 4.05%
13,Cc1ccc(Cn2nnc3c(=O)[nH]c(C4CCCN(S(=O)(=O)c5ccc(F)cc5)C4)nc32)cc1 (stereo unspecified),inactive: 12.7%
14,COc1cc(CNc2ccc3[nH]c(=O)[nH]c3c2)ccc1OCc1ccccc1F,inactive: 14.2%
15,COc1ccc(NC(=O)c2cccc(C#N)c2)cc1NS(=O)(=O)c1ccc(F)cc1,inactive: 3.12%
16,O=C(O)c1ccc(N=c2oc3cc(O)ccc3cc2C(=O)NCc2ccccc2)cc1,inactive: -12.1%
17,COc1ccccc1Oc1c(C)oc2c(CN3CCN(CCO)CC3)c(O)ccc2c1=O,inactive: 5.48%
18,CCN=C1SC(CC(=O)Nc2ccccc2)C(=O)N1CC (stereo unspecified),inactive: 9.74%
19,Nc1ncc(-c2ccccc2)c(-c2ccc(OCc3ccccc3)cc2O)n1,inactive: 16.9%
20,CC(C)c1ccc(OCC(=O)Nc2ccc(OC(F)(F)F)cc2)cc1,inactive: 10.1%
21,CCCCCNC(=O)Cn1c(=O)c2c(ncn2CC(C)C)n(Cc2ccccc2)c1=O,inactive: 3.8%
22,COc1cc(Nc2c3ccccc3nc3ccccc23)cc(OC)c1OC,inactive: -6.93%

row,Structure (SMILES),growth rescue (activation)
1,O=C(/C=C\c1ccco1)Nc1nc(-c2ccc3ccccc3c2)cs1,inactive: -2.6%
2,COc1ccc(C2(c3ccc(OC)cc3)NC(=O)N(CC(=O)Nc3cc(C)on3)C2=O)cc1,inactive: -3%
3,COc1cccc(CN(C)CC(O)COC(c2ccccc2)c2ccccc2C)c1 (stereo unspecified),inactive: -6.56%
4,O=C(COc1ccc(Br)cc1Cl)NC(=O)Nc1ccc2c(c1)OCCO2,inactive: 15.2%
5,O=C(c1ccc(CSc2ccccc2)cc1)N1CCCCCC1,inactive: 17.5%
6,O=C(O)C(Cc1ccccc1)Nc1ccc([N+](=O)[O-])cc1[N+](=O)[O-] (stereo unspecified),inactive: 11.5%
7,COc1ccc(S(=O)(=O)NCc2cc(-c3ccccc3Cl)no2)cc1,inactive: -21.4%
8,Cc1ccc(C(=O)N2CCN(c3ccc(NC(=O)c4cc(C)cc(C)c4)cc3)CC2)cc1,inactive: 16.9%
9,O=S(=O)(NC(=NC1CCCCC1)c1ccccc1F)c1ccccc1,inactive: 14.6%
10,COc1cc(Cl)ccc1OC1(C)CCN(Cc2ccc(SC)cc2)C1 (stereo unspecified),inactive: 19.3%
11,O=C(O)c1nn2c(c1Br)NC(c1ccccc1)CC2C(F)(F)F (stereo unspecified),inactive: 5.45%
12,COC(=O)c1c(-c2ccccc2)csc1NC1=NS(=O)(=O)c2ccccc21,inactive: 9.67%
13,COc1ccc(CNC(=O)COC(=O)[C@@H]2CCCN2C(=O)c2cccs2)cc1,inactive: -1.02%
14,CCOC(=O)C1CCCN(C(=O)c2ccccc2NS(=O)(=O)c2ccc(F)cc2)C1 (stereo unspecified),inactive: -10.2%
15,O=C(C1CCCO1)N1CCN(S(=O)(=O)c2cccc3nsnc23)CC1 (stereo unspecified),inactive: 1.35%
16,O=C(c1ccc(N2CCCS2(=O)=O)cc1)N1CCN(c2ccccc2)CC1,inactive: 11%
17,Cc1ccnc(N2CCCC(C(=O)Nc3ccc(C)c(C)c3)C2)n1 (stereo unspecified),inactive: 7.78%
18,O=[N+]([O-])c1cccc(COc2ncnc3cc([N+](=O)[O-])ccc23)c1,inactive: 26.1%
19,COc1ccc(OC)c(NC(=O)C2(C)CCN2C(=O)C2(c3ccccc3)CCCC2)c1 (stereo unspecified),inactive: 22.7%
20,CCc1cc(CC)c(/C=N/NC(N)=O)c(CC)c1/C=N/NC(N)=O,inactive: 7.35%
21,CCCCNC(=O)Cn1nc([N+](=O)[O-])c([N+](=O)[O-])c1C,inactive: -2.15%
22,O=C(CN1C(=O)C(=O)N(CCC2=CCCCC2)C1=O)c1c[nH]c2ccccc12,inactive: 8.97%
